Results: PMC4336329 (PLoS ONE, 2015)
About 14,000 (4.5%) of roughly 310,000 compounds showed an effect of 50% or more. The effect is printed as a negative number. This is one part of the list.

Target: human ether-à-go-go-related gene (hERG) potassium channel (human, UniProt Q12809)
Experiment: primary screen, population patch clamp on CHO cells stably expressing hERG
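Further: peak tail current of the secondary pulse compared with the same well before compound.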

Sequence of human ether-à-go-go-related gene (hERG) potassium channel (Q12809 whole entry, looked up): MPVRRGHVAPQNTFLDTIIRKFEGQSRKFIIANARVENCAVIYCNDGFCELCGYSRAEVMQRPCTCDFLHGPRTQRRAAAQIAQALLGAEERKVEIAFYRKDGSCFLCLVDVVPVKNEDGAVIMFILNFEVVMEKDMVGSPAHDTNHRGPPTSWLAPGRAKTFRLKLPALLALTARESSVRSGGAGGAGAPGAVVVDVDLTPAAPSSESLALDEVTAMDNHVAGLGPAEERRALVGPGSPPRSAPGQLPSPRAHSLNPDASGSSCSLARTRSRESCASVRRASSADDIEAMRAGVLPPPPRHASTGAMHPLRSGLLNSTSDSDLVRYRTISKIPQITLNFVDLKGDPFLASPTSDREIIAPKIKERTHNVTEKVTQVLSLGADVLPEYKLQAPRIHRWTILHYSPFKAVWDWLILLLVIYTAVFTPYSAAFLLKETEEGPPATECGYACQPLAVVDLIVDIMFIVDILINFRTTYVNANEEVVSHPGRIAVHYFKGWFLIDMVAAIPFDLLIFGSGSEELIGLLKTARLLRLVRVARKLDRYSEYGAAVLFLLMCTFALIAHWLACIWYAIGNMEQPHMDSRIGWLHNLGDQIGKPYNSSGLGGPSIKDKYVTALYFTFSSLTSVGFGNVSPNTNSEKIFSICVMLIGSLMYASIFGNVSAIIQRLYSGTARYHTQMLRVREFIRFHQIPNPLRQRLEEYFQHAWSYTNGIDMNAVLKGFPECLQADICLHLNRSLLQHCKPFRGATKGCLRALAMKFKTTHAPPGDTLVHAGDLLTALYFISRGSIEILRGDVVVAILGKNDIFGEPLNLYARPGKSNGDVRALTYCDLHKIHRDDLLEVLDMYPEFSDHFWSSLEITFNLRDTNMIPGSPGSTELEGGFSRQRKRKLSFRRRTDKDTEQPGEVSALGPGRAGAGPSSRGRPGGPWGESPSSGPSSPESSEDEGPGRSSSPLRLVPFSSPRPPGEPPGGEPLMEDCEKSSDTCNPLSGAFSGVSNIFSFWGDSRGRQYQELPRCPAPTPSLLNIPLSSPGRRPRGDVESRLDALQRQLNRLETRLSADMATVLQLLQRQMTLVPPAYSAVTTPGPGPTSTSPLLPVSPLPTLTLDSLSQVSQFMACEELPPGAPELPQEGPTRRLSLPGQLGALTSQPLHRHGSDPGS

Structure (SMILES)	hERG current change (%, negative = inhibition) at 10uM
CN(CC(=O)Nc1ccc(F)cc1)C(=O)COC(=O)CCN1C(=O)C2CC=CCC2C1=O (centres unmarked)	20.6%
COc1ccccc1C(=O)Nc1cccc(Oc2c(F)c(F)c(F)c(F)c2F)c1	15.6%
CCN(C(=O)COC(=O)C1CCN(S(=O)(=O)c2cccs2)CC1)c1ccccc1	22%
CC(OC(=O)c1ccco1)C(=O)NC1CCCC1 (centres unmarked)	3.02%
CC[C@H](C)[C@H](NC(N)=O)C(=O)Nc1ccc(S(=O)(=O)NC(C)C)cc1	2.25%
CCC(C)[C@H](NC(=O)Nc1cccc(Br)c1)C(=O)OC (some centres unmarked)	0.886%
Cc1nc2cc3ccccc3cc2n1C	-11.1%
c1ccc(-n2nnc(-c3cccnc3)n2)cc1	8.52%
CC(C)(C)c1ccc(C(=O)N/N=C/c2cccc(Cl)c2)cc1	4.99%
CC(C)(C)c1cc(C(=O)N/N=C/c2cc3c(cc2Br)OCO3)n[nH]1	11.1%
Nc1c(C(=O)NCCc2ccccc2)nnn1Cc1ccc(Br)cc1F	9.55%
N#CC(C#N)=Cc1c[nH]c(=O)c(C#N)c1Nc1ccccc1	16.1%
COc1ccc(OC)c(NC(=O)COc2coc(CN3CCCc4ccccc43)cc2=O)c1	7.53%
CC(=O)N(C(C)=O)c1ncnc2c1c(-c1ccc(Cl)cc1)nn2C(C)(C)C	5.52%
COC(=O)c1[nH]c(=O)c2ccccc2c1OCc1ccccc1	-1.05%
Cc1c(N(C)C(=O)c2ccc3c(c2)OCO3)c(=O)n(-c2ccccc2)n1C	12.5%
O=C(NCCN1CCOCC1)C1CCC(=O)N1Cc1ccc(F)cc1 (centres unmarked)	1.05%
COc1cc(/C=C/C(=O)OCC(=O)N2CCCc3ccccc32)ccc1OC(F)F	-22.8%
COc1ccc(-n2c(C)cc(=O)c3c2CC(C)(C)CC3=O)cc1	8.91%
O=Cc1c(Cl)nc2ccccn12	14.8%
CNC(=S)N1N=C(c2cccs2)CC1c1ccc(OC)cc1 (centres unmarked)	-10.7%
C=CCN(Cc1ccc(OC)c(OC)c1)C(=O)c1cc2cc(F)ccc2[nH]1	4.14%
O=C(CSc1ccccc1C(=O)NCc1ccccc1)NC1CCCCCCC1	-8.1%

Structure (SMILES)	hERG current change (%, negative = inhibition) at 10uM
COc1ccc(NC(C)=O)cc1NC(=O)CSc1nnc(-c2ccccc2)n1N	13.6%
Cc1ccc(C2CC(c3cccc(Br)c3)Nc3nnnn32)cc1 (centres unmarked)	-7.07%
CN(C)CC(O)COc1cccc(OCC(O)CN(C)C)c1.Cl (centres unmarked)	11.8%
CCc1cc(CNC(=O)C2CCC(=O)N(Cc3cccc(F)c3)C2)on1 (centres unmarked)	2.18%
CCOC(=O)c1sc(N)c(C#N)c1COC(=O)CNC(=O)c1ccccc1	-1.8%
COC(=O)CN(c1ccc(F)cc1)S(=O)(=O)c1ccccc1	4.48%
O=C(Nc1ccc(Br)cc1)c1cccc(N2C(=O)C3C4CCC(C4)C3C2=O)c1 (centres unmarked)	-9.13%
COc1ccccc1N1CCN(C(=O)CNS(=O)(=O)c2ccc(Br)s2)CC1	-13.6%
O=C(Cn1ncc2ccccc21)N1CCc2ccccc21	-8.94%
CCCCNC(=O)CSc1nc2cc3c(cc2c(=O)n1CCCC(=O)NCCc1ccc(OC)c(OC)c1)OCO3	1.71%
CN1CCN(c2ccc(-c3cccc(NC(=O)COc4ccc(Cl)cc4)c3)nn2)CC1	-50.7%
CC(C)(C)NC(=O)Cn1c(SCC(=O)Nc2nccs2)nc2ccccc21	4.51%
S=c1[nH]nc(-c2ccco2)n1/N=C/c1cccc(Cl)c1Cl	13.8%
COC(=O)c1cccc(C(=O)N2CCCC(CNC(=O)c3ccccc3Cl)C2)c1 (centres unmarked)	16.8%
CCCCOCCCNC(=O)CN1C(=O)c2ccccc2C1=O	9.01%
O=C1C2C3c4ccccc4C(c4ccccc43)C2c2nc3ccccc3n21 (centres unmarked)	8.73%
CCCNC(=O)c1cc(C)no1	12.6%
CCOC(=O)NC(Nc1ccc(OC)cc1)(C(F)(F)F)C(F)(F)F	17.9%
C=CCN1C(=O)C2(/C(=C(\O)c3ccc4c(c3)OCCO4)C(=O)C(=O)N2CCCOC)c2ccccc21 (centres unmarked)	8.1%
COC(=O)c1cccc(Nc2nc(-c3ccncc3)nc3ccccc23)c1	28.5%
O=C(c1nnc(-c2ccncc2)o1)c1ccccc1Cl	-3.04%
N#Cc1cc([N+](=O)[O-])ccc1NCCc1ccccn1	-18.4%
COc1ccccc1-c1nnn(C/C(N)=N/O)n1	18.5%

Structure (SMILES)	hERG current change (%, negative = inhibition) at 10uM
O=C(C1CCC1)N1CCC(c2nc3c(nnn3Cc3c(F)cccc3Cl)c(=O)[nH]2)CC1	1.4%
Cc1ccc(Cl)cc1N1CCN(S(=O)(=O)c2ccc3c(c2)CC(=O)N3C)CC1	-3.65%
CCOC(=O)CNc1nc(Cl)nc(Nc2ccc(OC)cc2OC)n1	19.2%
CCOC(=O)c1sc(SC)c2c1CCCC2=O	-5.11%
Cc1cc(O)c(C2(O)C(=O)Nc3cc(Br)ccc32)cc1C (centres unmarked)	23.3%
CCCn1c(-c2ccc(C(=O)OC)cc2)nc2c1c(=O)[nH]c(=O)n2Cc1ccccc1	1.15%
CC(=O)c1ccc(NC(=O)C2=CC(c3ccc4c(c3)OCO4)=NS(=O)(=O)N2C)cc1	-20.5%
Cc1ccccc1C(=O)c1cccn1CC(=O)NCc1ccc(F)cc1	15.4%
COC(=O)[C@@]12CCCN1[C@H](c1ccc(-c3ccc(OC)cc3)c(OC)c1)[C@@H]1C(=O)N(C)C(=O)[C@@H]12.O=C(O)C(F)(F)F	-9.37%
Cc1cnc(C(=O)N2CCN(c3ccc(C(F)(F)F)cn3)CC2)cn1	-13.4%
CCOc1ccc(C(CC(=O)O)NC(=O)Cc2ccc(Cl)cc2)cc1 (centres unmarked)	11.8%
O=C(Oc1cccnc1)c1ccc([N+](=O)[O-])cc1	-10.6%
COc1cccc(N2CC(C(=O)Nc3nnc(SCC(=O)NCC4CCCO4)s3)CC2=O)c1 (centres unmarked)	17.5%
CC(C)(C)c1ccc(-c2nc(C#N)c(NCCCn3ccnc3)o2)cc1	-0.856%
CCN1CCN(C(=O)CN(c2ccc(F)c(Cl)c2)S(C)(=O)=O)CC1	24.5%
Cc1csc(N2CCCC2c2nc3cc(Cl)c(N4CCCCC4)cc3n2CCCO)n1 (centres unmarked)	-39.2%
CC(=O)c1c(C)nn(-c2ccccc2)c1C	15.1%
Br.N=C(N)SCc1nc2ccccn2c1Br	-11.2%
Cc1ccc2cc(C#N)c(N3CCN(C)CC3)nc2c1	2.75%
CCCCCNCc1ccc(Br)cc1.Cl	-33.3%
S=c1[nH]c(-c2ccccc2)cn1/N=C/c1cccnc1	12.8%
Cc1cc(C(=O)NC(C)C2CC2)c(Cl)cc1Cl (centres unmarked)	18.3%
CCc1cc(=O)[nH]c(SCC(=O)Nc2cc(C)on2)n1	-4.55%

Structure (SMILES)	hERG current change (%, negative = inhibition) at 10uM
COc1cc(C)c(S(=O)(=O)n2c([N+](=O)[O-])cnc2C)cc1C	2.74%
COc1cc2c(cc1OC)C(C1C(=O)CCCC1=O)N(C(=O)CCl)CC2 (centres unmarked)	14.1%
CC(=O)Nc1ccc(N2Cc3ccccc3C2)cc1	6.18%
N#C/C(C(=S)Nc1ccccc1)=C1/NN=C(N2CCOCC2)N1c1ccccc1	25.6%
Cl.OC(CC#CCN1CCCCCC1)(c1ccccc1)C1CCCC1 (centres unmarked)	-17.7%
CC(C)(C)c1ccc(OCCC(=O)Nc2ccc(N3CCOCC3)cc2N2CCOCC2)cc1	-45.7%
O=C(c1ccc(-c2nnc(-c3ccccc3)o2)cc1)N1CCCCCC1	12.5%
CCOc1ccc(CN(C)CC(=O)Nc2cccc3ccccc23)cc1OC.O=C(O)C(=O)O	-16.5%
CCn1nc(C)c(NC(=O)/C=C/c2cnn(C)c2)c1C	-9.47%
C=CCn1c(CSc2nc3ccccc3s2)nnc1SCC(=O)OCC	-33.5%
COc1cccc(C(=O)C2CCCN(Cc3ccon3)C2)c1 (centres unmarked)	8.72%
Cc1cccc(COc2ccccc2C(=O)NC2CCC(O)CC2)c1 (centres unmarked)	-11.6%
CCOc1ccc(CCNC(=O)c2ccc3nc(N4CCOCC4)sc3c2)cc1OCC	-3.01%
Cc1oc(/N=C/c2cccc([N+](=O)[O-])c2)c(C#N)c1C	16.8%
COc1ccc(N(CC(=O)NC2CCCCC2)C(=O)CCCC(=O)Nc2ccccn2)c(OC)c1	-12%
CC(=O)N/C(=C/c1ccccc1)C(=O)N1CCCCC1	10.3%
CN(C)CCCNC(=S)N1CCn2c(nc3ccccc32)C1	4.63%
O=C(c1cccc([N+](=O)[O-])c1)N(c1ccccn1)c1ccccn1	6.79%
Cc1cc(NC2CCCCC2)n2c(n1)nc1ccccc12	-55.1%
CC1CN(C2CCN(C(=O)c3cccc(Cl)c3)CC2)CC(C)O1 (centres unmarked)	6.5%
